Reference: the supplement of paper PMC9446081
The whole screen tested about 39,000 compounds, of which about 220 (0.56%) showed activity. Some of the results follow.
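Further: static incubation at 37 °C against the wild-type strain, values averaged over two biological replicates.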

What follows are compounds tested on Escherichia coli K-12 BW25113 (assay: relative growth (OD600 normalised to plate interquartile mean) (fraction); higher = less growth inhibition, active = 0.2 or less). Details: 50 µM; LB; incubation time: overnight (16-24 h).
In the case of Cc1noc(C)c1NC(=O)Nc1ccc2c(c1)C(=O)N([C@@H](C)CO)C[C@@H](C)[C@@H](CN(C)C(=O)NC1CCCCC1)OCCCC[C@H](C)O2, the relative growth is reported as inactive: 0.972.
For COc1ccc(S(=O)(=O)Nc2ccc3c(c2)C(=O)N([C@@H](C)CO)C[C@@H](C)[C@H](CN(C)C(=O)Nc2ccccc2)OCCCC[C@@H](C)O3)cc1, the relative growth was inactive: 1.03.
COc1ccc(S(=O)(=O)Nc2ccc3c(c2)CC(=O)N([C@H](C)CO)C[C@@H](C)[C@@H](CN(C)S(=O)(=O)c2cccs2)O3)cc1 was tested, and the relative growth was inactive: 1.03.
For Cc1noc(C)c1S(=O)(=O)N(C)C[C@H]1OCCCC[C@H](C)Oc2ccc(NC(=O)Nc3ccccc3)cc2C(=O)N([C@H](C)CO)C[C@H]1C, the relative growth was inactive: 0.982.
COc1cc(OC)nc([C@@H](NC(=O)C2CCN(CCN3C(=O)c4ccccc4C3=O)CC2)c2ccc(F)cc2)n1 was tested, and the relative growth was inactive: 0.998.
With CC1=NNC(=O)CC1 the relative growth was inactive: 1.02.
In the case of C[C@H]1CN([C@@H](C)CO)C(=O)Cc2cc(NS(=O)(=O)c3ccc(Cl)cc3)ccc2O[C@@H]1CN(C)S(C)(=O)=O, the relative growth is reported as inactive: 1.01.
For CC(C)(C)[S@@](=O)N1Cc2cc(C(=O)NCc3ccc4c(c3)OCO4)nc(CCN3CCOCC3)c2[C@H]1CCO, the relative growth was inactive: 0.995.
For C[C@@H]1CN([C@@H](C)CO)C(=O)c2cccc(NC(=O)CCCCCC(=O)Nc3ccccc3N)c2O[C@@H]1CN(C)C(=O)Nc1cccc2ccccc12, the relative growth was inactive: 0.973.
With O=C(C[C@H]1C[C@@H]2c3cc(NS(=O)(=O)c4ccc(F)cc4)ccc3O[C@@H]2[C@H](CO)O1)NCc1ccc(Oc2ccccc2)cc1 the relative growth was inactive: 1.
Cc1noc(C)c1S(=O)(=O)Nc1cccc2c1O[C@@H](CN(C)Cc1ccccc1)[C@@H](C)CN([C@@H](C)CO)C2=O was tested, and the relative growth was inactive: 1.01.
With O=C(C[C@@H]1CC=CC[C@H](NC(=O)OCC2c3ccccc3-c3ccccc32)C(=O)O[C@H](c2ccccc2)CNC1=O)N[C@H](CO)Cc1ccccc1 the relative growth was inactive: 0.969.
For Cc1cc(F)ccc1S(=O)(=O)N1CCCO[C@@H]1CNC(=O)C(=O)NCc1ccncc1, the relative growth was inactive: 1.
C[C@H](CO)N1C[C@H](C)[C@@H](CN(C)Cc2ccc(-c3ccccc3)cc2)Oc2ccc(NC(=O)NC3CCCCC3)cc2CC1=O was tested, and the relative growth was inactive: 1.01.
With CCN1CCCC1CNC(=O)c1cc(S(N)(=O)=O)ccc1OC (stereo unspecified) the relative growth was inactive: 1.01.
In the case of C[C@@H]1CN([C@H](C)CO)C(=O)c2cccc(NS(C)(=O)=O)c2O[C@@H]1CN(C)Cc1ccc(C(F)(F)F)cc1, the relative growth is reported as inactive: 0.993.
